First the molecules themselves.
B1: PhoQ; a variant is named by its letters at X, in order, P23837 (parent)
chain: MKKLLRLFFPLSLRVRFLLATAAVVLVLSLAYGMVALIGYSVSFDKTTFRLLRGESNLFYTLAKWENNKLHVELPENIDKQSPTMTLIYDENGQLLWAQRDVPWLMKMIQPDWLKSNGFHEIEADVNDTSLLLSGDHSIQQQLQEVREDDDDAEMTHSVAVNVYPATSRMPKLTIVVVDTIPVELKSSYMVWSWFIYVLSANLLLVIPLLWVAAWWSLRPIEALAKEVRELEEHNRELLNPATTRELTSLVRNLNRLLKSERERYDKYRTTLTDLTHSLKTPLXXLQXXLRSLRSEKMSVSDAEPVMLEQISRISQQIGYYLHRASMRGGTLLSRELHPVAPLLDNLTSALNKVYQRKGVNISLDISPEISFVGEQNDFVEVMGNVLDNACKYCLEFVEISARQTDEHLYIVVEDDGPGIPLSKREVIFDRGQRVDTLRPGQGVGLAVAREITEQYEGKIVAGESMLGGARMEVIFGRQHSAPKDE

The list shows a part of the results.

The variants in the assay derive from B1. In words: enrichment ratio after two sorts for PhoP signalling (ratio (wild type AVST 3.29)); higher = more functional. As to conditions: with PhoP (E. coli).
Turning to TGCL, the enrichment ratio was found to be 22.4. For the variant NSKG, the enrichment ratio was not above 0.25. As for DCKA, the enrichment ratio is not above 0.25. For the variant QQES, the enrichment ratio was not above 0.25. As to SYQQ, the enrichment ratio is not above 0.25. For MICI, the enrichment ratio was determined as 0.945.

In the case of LRTY, the enrichment ratio is not above 0.25. As to SNIA, the enrichment ratio is not above 0.25. As to MGGQ, the enrichment ratio turned out to be 2.83. With IAGR the figure was not above 0.25; with DDEW, not above 0.25; with MRFF, not above 0.25. With YDAK the figure was not above 0.25; with AKCT, 9.01; with MARI, not above 0.25. For the variant HSMV, the enrichment ratio was 17. With GLRF the figure was not above 0.25; with MYMN, not above 0.25; with SDQH, not above 0.25. Take CSGV: the enrichment ratio is 5.64. In the case of PPFV, the enrichment ratio was not above 0.25. Take IMIW: the enrichment ratio was not above 0.25.

As for MVCY, the enrichment ratio was not above 0.25. As for SQVP, the figure is not above 0.25; as for LCPD, not above 0.25; as for QYRP, not above 0.25. Take VQKI: the enrichment ratio is not above 0.25. On to GTNH, for which the enrichment ratio was not above 0.25. For the variant MLGN, the enrichment ratio is not above 0.25. Turning to ACNH, the enrichment ratio is not above 0.25. Turning to IHCY, the enrichment ratio is not above 0.25.

On to IAEW, for which the enrichment ratio was not above 0.25. In the case of NRHM, the enrichment ratio is not above 0.25. For the variant SWKW, the enrichment ratio was not above 0.25. Turning to FFDD, the enrichment ratio was not above 0.25. With EQDP the figure was not above 0.25.

As for RVHG, the enrichment ratio was not above 0.25. With QIPL the figure was not above 0.25; with MCSG, 4.26; with TACP, not above 0.25. As to ADAD, the enrichment ratio was not above 0.25.

In the case of GSSV, the enrichment ratio was 6.59.

As for KVFF, the enrichment ratio is not above 0.25. As for FGTQ, the enrichment ratio was not above 0.25. With MVQK, the enrichment ratio was not above 0.25.

As for TELH, the enrichment ratio came to 11.2. In the case of DYGL, the enrichment ratio was not above 0.25. With SPLH the figure was not above 0.25; with PKES, not above 0.25; with GWAK, not above 0.25. As for PDLD, the figure is not above 0.25; as for QIIL, 2.31.

Turning to HTTK, the enrichment ratio was not above 0.25. With KTPI the figure was not above 0.25; with WFIC, not above 0.25. As to ENSP, the enrichment ratio is not above 0.25. With RNRV the figure was not above 0.25. Consider FVIQ, for which the enrichment ratio is not above 0.25. As to FLPM, the enrichment ratio is not above 0.25. With ILKD the figure was not above 0.25; with MSGP, not above 0.25; with APTN, not above 0.25.

For the variant YQWN, the enrichment ratio is not above 0.25. As for RPTP, the figure is not above 0.25; as for MLVR, not above 0.25; as for LPTG, not above 0.25. Consider VYEW, for which the enrichment ratio is not above 0.25. On to CQRF, for which the enrichment ratio was not above 0.25.

Turning to NDWA, the enrichment ratio is not above 0.25.

As to VMFD, the enrichment ratio was not above 0.25. As to YANL, the enrichment ratio was not above 0.25. Take NVCF: the enrichment ratio was not above 0.25. For HRND, the enrichment ratio is not above 0.25. In the case of VAMK, the enrichment ratio is not above 0.25.

In the case of EARE, the enrichment ratio was not above 0.25. RMFN: the enrichment ratio was not above 0.25.

In the case of FRNQ, the enrichment ratio was not above 0.25. YPTK: the enrichment ratio is not above 0.25. Turning to YPDG, the enrichment ratio is not above 0.25. For PYQM, the enrichment ratio was not above 0.25. For SWTD, the enrichment ratio was not above 0.25. As for LRDR, the figure is not above 0.25. For EDRV, the enrichment ratio is not above 0.25. Regarding LRRW, the enrichment ratio is not above 0.25. In the case of PRNE, the enrichment ratio is not above 0.25. With WFSY, the enrichment ratio was not above 0.25. For IRHS, the enrichment ratio was not above 0.25. For IAII, the enrichment ratio is not above 0.25.

Consider LDCI, for which the enrichment ratio came to 0.333.

On to QSWG, for which the enrichment ratio was 18. Turning to DCLM, the enrichment ratio was not above 0.25. For the variant FGGF, the enrichment ratio was not above 0.25. INTE: the enrichment ratio was not above 0.25.

As to CSCR, the enrichment ratio is not above 0.25. With EVSI the figure was not above 0.25. As for WAAW, the figure is not above 0.25; as for LLTI, not above 0.25.

As for PHHW, the enrichment ratio was not above 0.25.

In the case of PQRK, the enrichment ratio was not above 0.25. Take GRKY: the enrichment ratio was not above 0.25. With RTSN the figure was not above 0.25.

In the case of FHYI, the enrichment ratio is not above 0.25. As for KNLD, the enrichment ratio was not above 0.25. On to TPKI, for which the enrichment ratio is not above 0.25. As for PADQ, the enrichment ratio is not above 0.25. On to LMNR, for which the enrichment ratio is not above 0.25. Regarding PMYN, the enrichment ratio is not above 0.25. As for KKKC, the figure is not above 0.25; as for PVPA, not above 0.25; as for MGSV, 15.6. With WNVF, the enrichment ratio is not above 0.25.

Consider LMML, for which the enrichment ratio is not above 0.25. Regarding HGVQ, the enrichment ratio is not above 0.25.

Turning to YFCY, the enrichment ratio was not above 0.25. Regarding VPDA, the enrichment ratio is not above 0.25. For LALV, the enrichment ratio stood at 8.3.

On to GVQV, for which the enrichment ratio was not above 0.25. With SSCD the figure was 6.3. For the variant KSDV, the enrichment ratio was not above 0.25.

For NMLH, the enrichment ratio was not above 0.25. As to DFQY, the enrichment ratio was not above 0.25. ESKY: the enrichment ratio is not above 0.25. With MTIR the figure was not above 0.25; with VVTL, 0.446.

Regarding MYKT, the enrichment ratio was not above 0.25. Regarding MDRD, the enrichment ratio is not above 0.25. Consider IRSV, for which the enrichment ratio is not above 0.25. As for RTTE, the figure is not above 0.25.

For the variant WDHR, the enrichment ratio was not above 0.25. As to GRSS, the enrichment ratio is not above 0.25. With WATT, the enrichment ratio was not above 0.25. In the case of PCIF, the enrichment ratio was not above 0.25. On to QVHF, for which the enrichment ratio stood at 0.315. For RICY, the enrichment ratio was not above 0.25. For SSQL, the enrichment ratio turned out to be 9.73. With HHNC the figure was not above 0.25; with WYYF, not above 0.25. Consider IFQR, for which the enrichment ratio was not above 0.25.

As for YIYA, the enrichment ratio is not above 0.25. For the variant MHQL, the enrichment ratio was not above 0.25. On to QGMN, for which the enrichment ratio was not above 0.25.

With SIKS, the enrichment ratio was not above 0.25. As for EMCM, the figure is not above 0.25. With RMYH the figure was not above 0.25; with RHHE, not above 0.25. Regarding KSWV, the enrichment ratio was not above 0.25.

In the case of IFPI, the enrichment ratio is not above 0.25.

As to WQFA, the enrichment ratio was not above 0.25. With HFCF the figure was not above 0.25; with RPMM, not above 0.25. Turning to DNNW, the enrichment ratio was not above 0.25. Consider FIAM, for which the enrichment ratio was not above 0.25. On to VEYG, for which the enrichment ratio is not above 0.25.
